Experimental data from PubChem BioAssay AID686978 (National Center for Advancing Translational Sciences (NCATS), 2013).
The whole screen tested about 420,000 compounds, of which about 64,000 (15%) were called active. Inconclusive results, whose numbers are uncertain, are shown with a selection of clear calls. The call rests on the fitted dose curve; in most records, active means well fitted inhibition curve with a large enough effect; inconclusive means small, poorly fitted or top-dose-only effect; inactive means flat fitted curve, though single readings scatter. No potency is given beside an inconclusive call; the fits are too rough.
On the % scale 0 is the no-effect control and ±100 the full control effect; potency means the concentration at half of the fitted maximal effect; tags describe the fitted curve by direction and shape.

Assay: qHTS for Inhibitors of human tyrosyl-DNA phosphodiesterase 1 (TDP1): qHTS in cells in absence of CPT; further: nearly all actives have a fitted effect of over 55% in size
Conditions: DT40 Tdp1-/- hTDP1 cells, no CPT, ATP luminescence, 48 h; activity change, negative = growth inhibition: at 46.2 µM (top of the series) unless noted
Summary of the method: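 Stably hTDP1-transfected Tdp1-null chicken DT40 cells were treated with library compounds minus camptothecin and grown for at least 48 hr at 37 °C, after which cellular ATP was quantified by luminescence.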
For CCC(C)c1ccc(S(=O)(=O)N2CCN(C(=O)CN3C(=O)NC(C)(C4CC4)C3=O)CC2)cc1 (configuration not stated), the “activity change, negative = growth inhibition” value was inactive: -26.8%. With CCOc1ccc(NC(=O)Cn2nc(CC)n3c(cc4sccc43)c2=O)cc1 the “activity change, negative = growth inhibition” value was inactive: -19.5%. In the case of COc1ccccc1-n1ccnc(SCC(=O)NC2CCCCC2)c1=O, the Potency is reported as inconclusive [inhibitor, partial curve]. With O=C(Cn1cc2c(n1)CCCCC2)Nc1ccccc1Br the “activity change, negative = growth inhibition” value was inactive: -18.6%. With CCCCn1c(SCC2CCCO2)nc2cc(S(N)(=O)=O)ccc21 (configuration not stated) the Potency was inconclusive [inhibitor, partial curve, poor fit]. For COc1cc(Nc2nc3c(S(=O)(=O)c4cccc(Cl)c4)nnn3c3ccsc23)cc(OC)c1, the Potency was active: 7.31 µM. For CCN(CC(O)COc1ccc(OCC(O)CN(CC)C2CCCCC2)cc1)C1CCCCC1 (configuration not stated), the Potency was inconclusive [inhibitor, single point]. With CC(=O)c1ccc(S(=O)(=O)N(C)CC(=O)Nc2cccc(S(=O)(=O)N3CCCC3)c2)cc1 the Potency was inconclusive [inhibitor, single point]. With CCOC(=O)c1c(C)[nH]c(C)c1S(=O)(=O)NCCN1CCN(c2ccccc2F)CC1 the Potency was inconclusive [inhibitor, single point]. With O=C(CCN=C1NS(=O)(=O)c2ccccc21)OCc1ccccc1 the “activity change, negative = growth inhibition” value was inactive: -12.2%. With CN1CCC(NCCC(c2ccc(F)cc2)c2ccc(Cl)cc2)CC1 (configuration not stated) the Potency was active: 5.8 µM. For Cc1cc(C)c(OCC(=O)OCC(=O)NC2CCC(C)CC2)c(C)c1 (configuration not stated), the “activity change, negative = growth inhibition” value was inactive: -14.8%. In the case of COc1cc(S(=O)(=O)NCC2(N3CCCCC3)CCCCC2)ccc1NC(C)=O, the “activity change, negative = growth inhibition” value is reported as inactive: 2.29%. For CCCC1CC(=O)NC1(C(=O)OCC)C(=O)OCC (configuration not stated), the “activity change, negative = growth inhibition” value was inactive: -0.0579%. For CC1CCc2noc(NC(=O)c3ccc([N+](=O)[O-])cc3)c2C1 (configuration not stated), the Potency was inconclusive [inhibitor, single point]. With COc1ccc(CCn2c(=N)c(C(=O)NCc3ccco3)cc3c(=O)n4ccccc4nc32)cc1 the Potency was active: 23.1 µM. For CN(CC(=O)NCC1CCCCC1)CC(=O)Nc1ccccc1Br, the Potency was inconclusive [inhibitor, partial curve, poor fit]. For COc1ccccc1OCCNCC(O)COc1cccc2[nH]c3ccccc3c12 (configuration not stated), the Potency was active: 16.4 µM. For COc1ccc(N(CC(=O)NCCSCc2ccc(C)cc2)S(=O)(=O)c2ccccc2)cc1, the Potency was active: 7.31 µM. In the case of O=C1Nc2ccccc2C1Cc1ccc(Br)cc1 (configuration not stated), the Potency is reported as inconclusive [inhibitor, single point]. In the case of O=C(NCCN1CCOCC1)c1ccc2c(c1)N(Cc1ccc(Cl)cc1)C(=O)CS2, the Potency is reported as inconclusive [inhibitor, single point]. For Cc1ccccc1OCCSc1nc2ccc(NC(=O)c3ccco3)cc2s1, the Potency was inconclusive [inhibitor, single point]. In the case of COc1cc(/C=C2/C(=N)N3C(c4ccccc4)=CSC3=NC2=O)ccc1OCC(=O)O, the Potency is reported as active: 14.6 µM. With COc1ccc(/C=N/NC(=O)c2cccc(NC(=O)c3ccccc3Cl)c2)cc1OC the Potency was inconclusive [inhibitor, single point]. In the case of CCC(=O)N(c1nnc(SCC(=O)Nc2ccc(N3CCOCC3)cc2)s1)C1CC1, the “activity change, negative = growth inhibition” value is reported as inactive: 21.4%. In the case of CCC(C(=O)NC(C)(C)C)N(Cc1ccco1)C(=O)CNS(=O)(=O)c1ccc(OC)cc1 (configuration not stated), the “activity change, negative = growth inhibition” value is reported as inactive: -4.42%. For COc1cccc(C(c2nnnn2C2CCCC2)N2CCN(C/C=C/c3ccccc3)CC2)c1OC (configuration not stated), the Potency was inconclusive [inhibitor, single point]. For COc1cc2c(cc1OC)C(C)N(C(=O)c1cc3ccccc3o1)CC2 (configuration not stated), the Potency was inconclusive [inhibitor, partial curve, poor fit]. For COc1cc(NC(=S)NC(=O)c2cc(C)cc(C)c2)ccc1NC(=O)c1cccs1, the Potency was inconclusive [inhibitor, single point]. For CC(=O)c1cccc(NC(=O)c2cc3sc(Cl)cc3n2C)c1, the Potency was inconclusive [inhibitor, single point]. With CC(=O)c1c(C)[nH]c(C(=O)COC(=O)CN(C)S(=O)(=O)c2ccc(Cl)cc2)c1C the activity change, negative = growth inhibition was inconclusive: -33.8% [inhibitor]. With CSc1ccccc1NC(=O)COC(=O)CCCOc1ccc(C)cc1 the “activity change, negative = growth inhibition” value was inactive: -4.28%. With CC(C)c1ccc(NC(=S)Nc2ccc3[nH]c(=O)[nH]c3c2)cc1 the “activity change, negative = growth inhibition” value was inactive: 4.38%. With COc1ccc2nc(C)cc(N/N=C/c3ccc(F)cc3)c2c1 the Potency was active: 0.92 µM. In the case of CCCNC(=O)C1(C)CCCN(Cc2ccc(C#N)cc2)C1 (configuration not stated), the Potency is reported as inconclusive [inhibitor, single point]. In the case of OC(c1ccccc1)c1nc(/C=C/c2ccccc2)cs1 (configuration not stated), the “activity change, negative = growth inhibition” value is reported as inactive: -25.8%. In the case of COc1cc(NC(=O)Cc2cccs2)ccc1-n1cnnn1, the “activity change, negative = growth inhibition” value is reported as inactive: -8.51%. With CCN(CC(=O)Nc1c(F)cccc1F)C(=O)c1ccc(S(=O)(=O)N2CCCC2)cc1 the Potency was inconclusive [inhibitor, single point]. With Cc1nn(Cc2ccc(Cl)cc2)c(C)c1NC(=O)CSc1nc2c(c(C(F)(F)F)n1)CCc1ccccc1-2 the Potency was inconclusive [inhibitor, single point]. For O=C1NC(=O)N(C2CCCCC2)CC1Br (configuration not stated), the Potency was inconclusive [inhibitor, single point]. In the case of Cc1cccc(-c2nsc(SCC(=O)Nc3ccc4c(c3)OCO4)n2)c1, the Potency is reported as inconclusive [inhibitor, single point]. With CCOC(=O)C1CCN(S(=O)(=O)c2cccc3nonc23)CC1 the “activity change, negative = growth inhibition” value was inactive: -10.4%. With O=C(CC1C(=O)NCCN1Cc1ccc(F)cc1)NCCOc1cccnc1 (configuration not stated) the “activity change, negative = growth inhibition” value was inactive: 2.72%. In the case of COCCCn1cc(C(=O)c2cc(Br)ccc2O)cc(C#N)c1=O, the Potency is reported as inconclusive [inhibitor, partial curve]. In the case of CCOC(=O)/C(=N\Nc1ccccc1)c1csc(Nc2ccc(C)cc2)n1, the Potency is reported as inconclusive [inhibitor, single point]. In the case of Cc1ccccc1OCc1n[nH]c(=S)n1-c1cccc(Cl)c1, the Potency is reported as inconclusive [inhibitor, single point]. With Cc1cccn2c(=O)c3cc(C(=O)NCCCOC(C)C)sc3nc12 the Potency was active: 20.6 µM. In the case of Cc1ccc(C(=O)c2coc3ccc(O)c(Cl)c23)cc1, the Potency is reported as inconclusive [inhibitor, single point]. In the case of Cc1ccccc1Nc1nc(N)[nH]c(=O)c1N=O, the Potency is reported as inconclusive [inhibitor, single point]. In the case of CCc1ccc2oc(-c3cccc(NC(=O)c4cccnc4)c3)nc2c1, the Potency is reported as inconclusive [inhibitor, single point]. In the case of CCOc1cc(C(=O)N(CC)CC(=O)Nc2c(F)cccc2F)ccc1OCC(=O)N1CCOCC1, the “activity change, negative = growth inhibition” value is reported as inactive: -9.61%. With CCOC(=O)c1ccc(NC(=S)Nc2ccc(Cl)cn2)cc1 the “activity change, negative = growth inhibition” value was inactive: -25.8%. For Cc1cc(C)c(C(=O)COC(=O)C2CCN(c3ccc(C(F)(F)F)cn3)CC2)c(C)c1, the Potency was inconclusive [inhibitor, single point]. For C/C(CC(=O)Nc1ccc(Cl)cc1Cl)=N\NC(=O)c1ccco1, the Potency was inconclusive [inhibitor, single point]. For CCn1cc(/C=C(\NC(=O)c2ccccc2Cl)C(=O)NCCCn2ccnc2)c2ccccc21, the Potency was inconclusive [inhibitor, single point]. For Cc1ccc(NC(=O)c2ncn(CCCNCCCN3CCCC3=O)n2)cc1C, the “activity change, negative = growth inhibition” value was inactive: -2.4%. In the case of CC(C)CNC(=O)[C@@H]1CSC2c3ccccc3C(=O)N21 (some centres not stated), the “activity change, negative = growth inhibition” value is reported as inactive: -26.7%. For Cc1ccc2c(cnn2C(=O)CCCC(=O)NCc2ccc(F)cc2)c1, the Potency was inconclusive [inhibitor, single point]. With Cn1c(=O)c2c(nc(Cl)n2CC(=O)NC2(C#N)CCCCC2)n(C)c1=O the “activity change, negative = growth inhibition” value was inactive: -20.2%. In the case of CCCc1noc2c1C(c1cc(Br)ccc1F)C(C#N)=C(N)N2 (configuration not stated), the Potency is reported as inconclusive [inhibitor, single point]. With Cc1ccc(C2N3CC4(C)CN2CC(c2ccccc2)(C3)C4=O)cc1 (configuration not stated) the activity change, negative = growth inhibition was inconclusive: -32.9% [inhibitor]. For COCCNC(=O)CCCn1c(SCc2ccccc2C)nc2c(sc3ccccc32)c1=O, the Potency was inconclusive [inhibitor, single point]. With COc1cc2ncc(S(=O)(=O)c3ccccc3)c(N3CCC4(CC3)OCCO4)c2cc1OC the Potency was inconclusive [inhibitor, partial curve]. For COC(=O)c1c2c(nc3ccccc13)CCC2, the Potency was inconclusive [inhibitor, single point]. With CC(C)(C)NC(=O)C1c2ccccc2OCC(=O)N1C1CC1 (configuration not stated) the “activity change, negative = growth inhibition” value was inactive: -17.3%. In the case of S=C(NCCCN(Cc1ccc(Cl)cc1)c1ccc(-c2ccccc2)cn1)NCCCN(Cc1ccc(Cl)cc1)c1ccc(-c2ccccc2)cn1, the Potency is reported as inconclusive [inhibitor, single point]. For O=C(NCC(=O)N(c1ccccc1F)C(C(=O)NC1CCCC1)c1ccncc1)c1ccco1 (configuration not stated), the “activity change, negative = growth inhibition” value was inactive: 4.62%. With Cc1coc(=N)n1CC(=O)c1ccc(Cl)cc1 the “activity change, negative = growth inhibition” value was inactive: -13.3%. For Cc1ccc(NS(=O)(=O)c2ccc3c(c2)NC(=O)CCS3)c(C)c1, the Potency was inconclusive [inhibitor, single point]. With Cc1cnc(-n2ncc(C(=O)NCCc3ccccn3)c2C)nc1-c1ccc(F)cc1 the Potency was inconclusive [inhibitor, single point]. For O=C(c1cc(COc2ccc(F)cc2F)on1)N1C[C@H]2CC[C@H]1C2, the Potency was inconclusive [inhibitor, partial curve]. In the case of CCC(=O)Nc1ccc(-c2nc3ncccc3o2)cc1C, the “activity change, negative = growth inhibition” value is reported as inactive: -4.45%.
